Results as given in the supplement of paper PMC4604168 (melanoma cell lines).
Some of the results follow. Single values are uncertain, as repeats are few or missing.

What was measured:
Assay in all cases: cell count relative to DMSO control; melanoma cells; higher = more viable cells
Conditions in all cases: library dose: standard library concentration; 72 h
[1] = test system: G361
[2] = test system: IPC-298
[3] = test system: IST-MEL1
[4] = test system: LB2518-MEL
[5] = test system: LOXIMVI
[6] = test system: MEL-HO
[7] = test system: MZ2-MEL
[8] = test system: MeWo
[9] = test system: RPMI7951
[10] = test system: RVH-421
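Also: cells treated in 1,536-well plates, then fixed and DAPI-stained, with nuclei counted from automated high-throughput microscope images.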

| Structure (SMILES) | cell count [1] [%] | cell count [2] [%] | cell count [3] [%] | cell count [4] [%] | cell count [5] [%] | cell count [6] [%] | cell count [7] [%] | cell count [8] [%] | cell count [9] [%] | cell count [10] [%] |
| --- | --- | --- | --- | --- | --- | --- | --- | --- | --- | --- |
| Cc1cn(-c2cc(NC(=O)c3ccc(C)c(Nc4nccc(-c5cccnc5)n4)c3)cc(C(F)(F)F)c2)cn1 [nilotinib] + O=C(Nc1cccc(Cl)c1)Nc1ncc(CCNc2ncnc3ccsc23)s1 [SNS314] (first compound 1 µM, partner dose 0.004 µM) | 59.6 | 58.3 | 59.3 | 68.8 | 199 | 75.4 | 91.2 | 61.2 | 107 | 87.8 |
| CC(C)C[C@H](NC(=O)[C@H](Cc1ccccc1)NC(=O)c1cnccn1)B(O)O [Bortezomib] + COc1ccc(Cl)c(Nc2nc3ccccc3nc2NS(=O)(=O)c2cccc(NC(=O)C(C)(C)N)c2)c1 [XL147] (first compound 0.005 µM, partner dose 4 µM) | 1.24 | 26.2 | 29.2 | 3.77 | 39.7 | 47.5 | 5.67 | 16.8 | 7.43 | 3.58 |
| Cn1c(=O)n(-c2ccc(C(C)(C)C#N)cc2)c2c3cc(-c4cnc5ccccc5c4)ccc3ncc21 + NCC(=O)Nc1ccc(-n2nc(C(F)(F)F)cc2-c2ccc3c(ccc4ccccc43)c2)cc1 [OSU03012] (first compound 0.02 µM, partner dose 5 µM) | 54 | 78.7 | 81.2 | 82.1 | 74.3 | 70.5 | 76.7 | 61.4 | 72.7 | 77.3 |
| Cn1c(=O)n(-c2ccc(C(C)(C)C#N)cc2)c2c3cc(-c4cnc5ccccc5c4)ccc3ncc21 + O=C(Nc1cccc(Cl)c1)Nc1ncc(CCNc2ncnc3ccsc23)s1 [SNS314] (first compound 0.02 µM, partner dose 0.004 µM) | 41.6 | 75.6 | 51.7 | 68.7 | 78.2 | 65.7 | 70.1 | 61 | 87 | 73 |
| Cc1cn(-c2cc(NC(=O)c3ccc(C)c(Nc4nccc(-c5cccnc5)n4)c3)cc(C(F)(F)F)c2)cn1 [nilotinib] + N#Cc1c(O)c2c(-c3ccc(-c4ccccc4O)cc3)csc2[nH]c1=O [A769662] (first compound 1 µM, partner dose 10 µM) | 92 | 93.7 | 88.8 | 111 | 85.9 | 90.5 | 106 | 97.8 | 86.2 | 113 |
| CC(C)C[C@H](NC(=O)[C@H](Cc1ccccc1)NC(=O)c1cnccn1)B(O)O [Bortezomib] + O=C(O)C(=O)Nc1sc2c(c1C(=O)O)CCNC2 [TCS401] (first compound 0.005 µM, partner dose 8.33333 µM) | 1.71 | 50.1 | 32.4 | 16.8 | 20.1 | 66 | 41.3 | 20.2 | 10.9 | 15.8 |
| COc1ccc(C2=N[C@@H](c3ccc(Cl)cc3)[C@@H](c3ccc(Cl)cc3)N2C(=O)N2CCNC(=O)C2)c(OC(C)C)c1 [Nutlin-3] + CC(C)C[C@H](NC(=O)[C@H](Cc1ccccc1)NC(=O)c1cnccn1)B(O)O [Bortezomib] (first compound 0.5 µM, partner dose 0.005 µM) | 2.26 | 14.3 | 22.7 | 1.55 | 16.5 | 53.9 | 3.73 | 15.9 | 7.15 | 4.08 |
| COc1ccc(C2=N[C@@H](c3ccc(Cl)cc3)[C@@H](c3ccc(Cl)cc3)N2C(=O)N2CCNC(=O)C2)c(OC(C)C)c1 [Nutlin-3] + NC(=O)Nc1cc(-c2cccc(F)c2)sc1C(=O)N[C@H]1CCCNC1 [AZD7762] (first compound 0.5 µM, partner dose 0.1 µM) | 69.6 | 97.8 | 94.3 | 59.7 | 43.7 | 76.3 | 115 | 58.6 | 20.9 | 78.3 |
| Cc1cc(Nc2cc(N3CCN(C)CC3)nc(/C=C/c3ccccc3)n2)n[nH]1 + COC(=O)c1sccc1S(=O)(=O)Nc1ccc(Nc2ccccc2)cc1OC [GSK0660] (first compound 0.2 µM, partner dose 5 µM) | 82.7 | 87.2 | 97.4 | 78.2 | 94.4 | 92.3 | 87 | 82.1 | 63.4 | 69.9 |
| CC(C)C[C@H](NC(=O)[C@H](Cc1ccccc1)NC(=O)c1cnccn1)B(O)O [Bortezomib] + COc1cc(N2CCC(N3CCN(C)CC3)CC2)ccc1Nc1ncc(Cl)c(Nc2ccccc2S(=O)(=O)C(C)C)n1 [NVP-TAE684] (first compound 0.005 µM, partner dose 0.4 µM) | 2.75 | 20.6 | 10.8 | 2.15 | 22.7 | 29.6 | 4.29 | 11.5 | 10.9 | 18.4 |
| COc1ccc(C2=N[C@@H](c3ccc(Cl)cc3)[C@@H](c3ccc(Cl)cc3)N2C(=O)N2CCNC(=O)C2)c(OC(C)C)c1 [Nutlin-3] + COc1ccc2c(c1)CCC1C2CCC2(C)C(NCCCCCCN3C(=O)C=CC3=O)CCC12 [U73122] (first compound 0.5 µM, partner dose 2 µM) | 68.1 | 102 | 78.8 | 90.5 | 88.4 | 90.6 | 106 | 62.9 | 36.9 | 76.3 |
| Cc1cn(-c2cc(NC(=O)c3ccc(C)c(Nc4nccc(-c5cccnc5)n4)c3)cc(C(F)(F)F)c2)cn1 [nilotinib] + O=C(O)C(=O)Nc1sc2c(c1C(=O)O)CCNC2 [TCS401] (first compound 1 µM, partner dose 8.33333 µM) | 74.3 | 108 | 102 | 103 | 115 | 81.1 | 120 | 83.4 | 82.1 | 105 |
| CC(C)C[C@H](NC(=O)[C@H](Cc1ccccc1)NC(=O)c1cnccn1)B(O)O [Bortezomib] + CO[C@H]1C[C@@H]2CC[C@@H](C)[C@@](O)(O2)C(=O)C(=O)N2CCCC[C@H]2C(=O)O[C@H]([C@H](C)C[C@@H]2CC[C@@H](OCCO)[C@H](OC)C2)CC(=O)[C@H](C)/C=C(\C)[C@@H](O)[C@@H](OC)C(=O)[C@H](C)C[C@H](C)/C=C/C=C/C=C/1C [everolimus] (first compound 0.005 µM, partner dose 0.1 µM) | 1.86 | 13.9 | 12.1 | 2.73 | 18.7 | 22.4 | 3.07 | 12.2 | 6.39 | 7.74 |
| Cc1cc(Nc2cc(N3CCN(C)CC3)nc(/C=C/c3ccccc3)n2)n[nH]1 + CO[C@H]1C[C@@H]2CC[C@@H](C)[C@@](O)(O2)C(=O)C(=O)N2CCCC[C@H]2C(=O)O[C@H]([C@H](C)C[C@@H]2CC[C@@H](OCCO)[C@H](OC)C2)CC(=O)[C@H](C)/C=C(\C)[C@@H](O)[C@@H](OC)C(=O)[C@H](C)C[C@H](C)/C=C/C=C/C=C/1C [everolimus] (first compound 0.2 µM, partner dose 0.1 µM) | 53.8 | 60.7 | 85.7 | 58.7 | 66.8 | 65.4 | 64.2 | 56.6 | 51.5 | 88.4 |
| CC(C)C[C@H](NC(=O)[C@H](Cc1ccccc1)NC(=O)c1cnccn1)B(O)O [Bortezomib] + Cn1c(Nc2ccc(C(F)(F)F)cc2)nc2cc(Oc3ccnc(-c4ncc(C(F)(F)F)[nH]4)c3)ccc21 [CHIR265] (first compound 0.005 µM, partner dose 0.4 µM) | 0.587 | 8.48 | 10.1 | 1.76 | 23.7 | 25.8 | 3.81 | 14.1 | 2.5 | 6.57 |
| Cc1cc(Nc2cc(N3CCN(C)CC3)nc(/C=C/c3ccccc3)n2)n[nH]1 + N#Cc1c(O)c2c(-c3ccc(-c4ccccc4O)cc3)csc2[nH]c1=O [A769662] (first compound 0.2 µM, partner dose 10 µM) | 97.8 | 110 | 1.94 | 95.5 | 107 | 88.9 | 113 | 75.9 | 80.5 | 108 |
| CC(C)C[C@H](NC(=O)[C@H](Cc1ccccc1)NC(=O)c1cnccn1)B(O)O [Bortezomib] + CCCCCCCCCCCC1=C(O)C(=O)C=C(O)C1=O [Embelin] (first compound 0.005 µM, partner dose 6 µM) | 77.1 | 59.8 | 63 | 88.8 | 104 | 77.9 | 88 | 108 | 84.6 | 72.5 |
| Cc1cc(Nc2cc(N3CCN(C)CC3)nc(/C=C/c3ccccc3)n2)n[nH]1 + Cc1ccc(NC(=O)c2cccc(N(C)C)c2)cc1NC(=O)c1ccc(O)cc1 [ZM336372] (first compound 0.2 µM, partner dose 10 µM) | 94.2 | 103 | 108 | 61.6 | 75.6 | 99.7 | 114 | 85.7 | 77.2 | 78.1 |
| Cc1cn(-c2cc(NC(=O)c3ccc(C)c(Nc4nccc(-c5cccnc5)n4)c3)cc(C(F)(F)F)c2)cn1 [nilotinib] + O=C(O)[C@@H]1[O][Sb](=[O])([O][Sb]2(=[O])[O][C@H]([C@H](O)CO)[C@H](O)[C@H](C(=O)O)[O]2)[O][C@H]([C@H](O)CO)[C@@H]1O [stibogluconate] (first compound 1 µM, partner dose 10 µM) | 75.7 | 98.7 | 102 | 91.7 | 110 | 83.8 | 97.2 | 101 | 106 | 97.9 |
| Cc1cc(Nc2cc(N3CCN(C)CC3)nc(/C=C/c3ccccc3)n2)n[nH]1 + Cn1nnc2c(C(N)=O)ncn2c1=O [temozolomide] (first compound 0.2 µM, partner dose 10 µM) | 89.9 | 79.2 | 96.7 | 91 | 67.7 | 85 | 90.3 | 82.6 | 99.6 | 77.9 |
